Data: patent US20240043530A1 (JIANGSU HENGRUI PHARMACEUTICALS, published 2024)
Like-named read-outs stand apart in the source and are kept apart here.

Tests used:
Assay in all cases: cell-based or functional assay
[1] = target: T1, human PVRIG expressed on the cell surface (human, UniProt Q6DKI7 41-326)
T1 sequence (looked up): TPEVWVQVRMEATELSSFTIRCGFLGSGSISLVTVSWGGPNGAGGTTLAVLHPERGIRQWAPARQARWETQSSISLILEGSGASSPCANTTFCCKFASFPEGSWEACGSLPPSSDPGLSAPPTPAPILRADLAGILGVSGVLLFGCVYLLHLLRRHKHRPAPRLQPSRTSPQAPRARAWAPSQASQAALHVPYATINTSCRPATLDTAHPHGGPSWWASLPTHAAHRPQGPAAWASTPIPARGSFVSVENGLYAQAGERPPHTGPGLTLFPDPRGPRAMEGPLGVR

[2] = target: T1, human PVRIG expressed on the cell …; remark: listed apart in the source
[3] = target: T1, human PVRIG expressed on the cell …; remark: listed apart in the source
[4] = target: T1, human PVRIG expressed on the cell …; remark: listed apart in the source
[5] = target: T1, human PVRIG expressed on the cell …; remark: listed apart in the source
[6] = target: T1, human PVRIG expressed on the cell …; remark: listed apart in the source

B1: anti-PVRIG antibody 30 (Fc fusion)
heavy: HVQLVESGGGSVQAGGSLRLSCEASGYSYSGDCMGWFRRAPGKERDEGVATIDNAGRIKYADSVKGRFTISHGNGKYILYLQMNSLKPEDTDMYYCAAGWTFGGNCSPADWGQGTQVTVSS[human IgG4 Fc with S228P F234A L235A (EU numbers) omitted]
- Killing activity (%) of NK92 on K562, 20 nM antibody [1]: 36%
- Killing activity (%) of NK92 on K562, 100 nM antibody [1]: 39%
- IFNγ (pg/mL) in mixed lymphocyte reaction, 4 nM antibody [2]: 1680 pg/mL
- IFNγ (pg/mL) in mixed lymphocyte reaction, 20 nM antibody [2]: 1910 pg/mL
- IFNγ (pg/mL) in mixed lymphocyte reaction, 100 nM antibody [2]: 1580 pg/mL
- Killing activity (%) of NK92 on K562, 4 nM antibody [3]: 10.4%
- Killing activity (%) of NK92 on K562, 20 nM antibody [3]: 11.9%
- Killing activity (%) of NK92 on K562, 100 nM antibody [3]: 13.3%
- Experiment on activity in PVRIG reporter cells EC50 [4]: 0.06 nM

B2: anti-PVRIG antibody 38 (Fc fusion)
heavy: QVQLVESGGGSVQAGGSLRLSCAASPSTYGPSDMAWFRQAPGKQREGVATISAAGRLTYYTDSVRGRFTISRDNAKNTMYLQMNSLKPEDTAMYYCAADFAGGSSLFADYKYWGQGTQVTVSS[human IgG4 Fc with S228P F234A L235A (EU numbers) omitted]
- Killing activity (%) of NK92 on K562, 20 nM antibody [1]: 29%
- Killing activity (%) of NK92 on K562, 100 nM antibody [1]: 27%
- IFNγ (pg/mL) in mixed lymphocyte reaction, 4 nM antibody [2]: 1390 pg/mL
- IFNγ (pg/mL) in mixed lymphocyte reaction, 20 nM antibody [2]: 2020 pg/mL
- IFNγ (pg/mL) in mixed lymphocyte reaction, 100 nM antibody [2]: 2130 pg/mL
- Experiment on activity in PVRIG reporter cells EC50 [4]: 0.2 nM

B3: humanized anti-PVRIG antibody 39H4 (Fc fusion)
heavy: EVQLVESGGGLVQPGGSLRLSCAASGYTSRTDCMGWFRQAPGKGLEGVAHIDSDGIPRYVESVKGRFTISQDHAKNSLYLQMNSLRAEDTAVYYCVVGFKFGDYCAPNDWGQGTMVTVSS[human IgG4 Fc with S228P F234A L235A (EU numbers) omitted]
- Experiment on activity in PVRIG reporter cells EC50 [5]: 0.094 nM

B4: anti-PVRIG antibody 39 (Fc fusion)
heavy: QVQLVESGGGSVQAGGSLRLSCAASRYTSRTDCMGWFRQAPGKEREGVAHIDSDGIPRYVESVKGRFTISQDHAKNTLYLQMNSLKPEDSATYYCVVGFKFGDYCAPNDWGQGTQVTVSS[human IgG4 Fc with S228P F234A L235A (EU numbers) omitted]
- Killing activity (%) of NK92 on K562, 4 nM antibody [6]: 21.3%
- Killing activity (%) of NK92 on K562, 20 nM antibody [6]: 22.7%
- Killing activity (%) of NK92 on K562, 100 nM antibody [6]: 22.8%
- Killing activity (%) of NK92 on K562, 20 nM antibody [1]: 32%
- Killing activity (%) of NK92 on K562, 100 nM antibody [1]: 30%
- Experiment on activity in PVRIG reporter cells EC50 [4]: 0.06 nM

B5: humanized anti-PVRIG antibody 39H1 (Fc fusion)
heavy: EVQLVESGGGLVQPGGSLRLSCAASGFTFSTDCMGWFRQAPGKGLEGVAHIDSDGIPRYVESVKGRFTISRDNAKNSLYLQMNSLRAEDTAVYYCVVGFKFGDYCAPNDWGQGTMVTVSS[human IgG4 Fc with S228P F234A L235A (EU numbers) omitted]
- Killing activity (%) of NK92 on K562, 4 nM antibody [6]: 13.7%
- Killing activity (%) of NK92 on K562, 20 nM antibody [6]: 17.7%
- Killing activity (%) of NK92 on K562, 100 nM antibody [6]: 21.2%
- Experiment on activity in PVRIG reporter cells EC50 [5]: 0.191 nM

B6: humanized anti-PVRIG antibody 39H2 (Fc fusion)
heavy: EVQLVESGGGLVQPGGSLRLSCAASGFTSRTDCMGWFRQAPGKGLEGVAHIDSDGIPRYVESVKGRFTISRDNAKNSLYLQMNSLRAEDTAVYYCVVGFKFGDYCAPNDWGQGTMVTVSS[human IgG4 Fc with S228P F234A L235A (EU numbers) omitted]
- Killing activity (%) of NK92 on K562, 4 nM antibody [6]: 15.3%
- Killing activity (%) of NK92 on K562, 20 nM antibody [6]: 18.7%
- Killing activity (%) of NK92 on K562, 100 nM antibody [6]: 19.7%
- Experiment on activity in PVRIG reporter cells EC50 [5]: 0.074 nM

B7: anti-PVRIG antibody 151 (Fc fusion)
heavy: HVQLVESGGGSVQAGGSLRLSCVASASGFTYRPYCMAWFRQAPGKEREAVAGIDIFGGTTYADSVKGRFTASRDNAGFSLFLQMNDLKPEDTAMYYCAAGDSPDGRCPPLGQGLNYWGQGTQVTVSS[human IgG4 Fc with S228P F234A L235A (EU numbers) omitted]
- Killing activity (%) of NK92 on K562, 4 nM antibody [6]: 20.9%
- Killing activity (%) of NK92 on K562, 20 nM antibody [6]: 22.9%
- Killing activity (%) of NK92 on K562, 100 nM antibody [6]: 24.2%
- Killing activity (%) of NK92 on K562, 20 nM antibody [1]: 35%
- Killing activity (%) of NK92 on K562, 100 nM antibody [1]: 33%
- IFNγ (pg/mL) in mixed lymphocyte reaction, 4 nM antibody [2]: 1500 pg/mL
- IFNγ (pg/mL) in mixed lymphocyte reaction, 20 nM antibody [2]: 2220 pg/mL
- IFNγ (pg/mL) in mixed lymphocyte reaction, 100 nM antibody [2]: 1800 pg/mL
- Experiment on activity in PVRIG reporter cells EC50 [4]: 0.04 nM

B8: humanized anti-PVRIG antibody 20H5 (Fc fusion)
heavy: EVQLVESGGGLVQPGGSLRLSCAASGYTSRTDCMGWFRQAPGKEHEGVAHIDSDGIPRYVDSVKGRFTISQDHAKNSLYLQMNSLRAEDTAVYYCVVGFKFDEDYCAPNDWGQGTMVTVSS[human IgG4 Fc with S228P F234A L235A (EU numbers) omitted]
- Experiment on activity in PVRIG reporter cells EC50 [5]: 0.042 nM
- Killing activity (%) of NK92 on K562, 4 nM antibody [3]: 9.2%
- Killing activity (%) of NK92 on K562, 20 nM antibody [3]: 9.9%
- Killing activity (%) of NK92 on K562, 100 nM antibody [3]: 13.3%

B9: humanized anti-PVRIG antibody 30H2 (Fc fusion)
heavy: EVQLVESGGGLVQPGGSLRLSCAASGFTFSGDCMGWFRQAPGKGLDEGVATIDNAGRIKYADSVKGRFTISRDNAKNSLYLQMNSLRAEDTAVYYCAAGWTFGGQCSPADWGQGTQVTVSS[human IgG4 Fc with S228P F234A L235A (EU numbers) omitted]
- Experiment on activity in PVRIG reporter cells EC50 [5]: 0.176 nM
- Killing activity (%) of NK92 on K562, 4 nM antibody [3]: 7.7%
- Killing activity (%) of NK92 on K562, 20 nM antibody [3]: 14.5%
- Killing activity (%) of NK92 on K562, 100 nM antibody [3]: 17.7%

B10: humanized anti-PVRIG antibody 30H3 (Fc fusion)
heavy: EVQLVESGGGLVQPGGSLRLSCAASGYSYSGDCMGWFRQAPGKGLDEGVATIDNAGRIKYADSVKGRFTISRDNAKNSLYLQMNSLRAEDTAVYYCAAGWTFGGQCSPADWGQGTQVTVSS[human IgG4 Fc with S228P F234A L235A (EU numbers) omitted]
- Experiment on activity in PVRIG reporter cells EC50 [5]: 0.078 nM

B11: humanized anti-PVRIG antibody 151H7 (Fc fusion)
heavy: HVQLVESGGGLVQPGGSLRLSCVASASGFTYRPYCMAWFRQAPGKEREAVAGIDIFGGTTYADSVKGRFTASRDNAGFSLYLQMNSLRAEDTAVYYCAAGDSPDGRCPPLGQGLNYWGQGTMVTVSS[human IgG4 Fc with S228P F234A L235A (EU numbers) omitted]
- Killing activity (%) of NK92 on K562, 4 nM antibody [6]: 16.9%
- Killing activity (%) of NK92 on K562, 20 nM antibody [6]: 21%
- Killing activity (%) of NK92 on K562, 100 nM antibody [6]: 18.4%
- Experiment on activity in PVRIG reporter cells EC50 [5]: 0.038 nM

B12: humanized anti-PVRIG antibody 151H4 (Fc fusion)
heavy: EVQLVESGGGLVQPGGSLRLSCVASASGFTYRPYCMAWFRQAPGKGLEAVAGIDIFGGTTYADSVKGRFTISRDNAKNSLYLQMNSLRAEDTAVYYCAAGDSPDGRCPPLGQGLNYWGQGTMVTVSS[human IgG4 Fc with S228P F234A L235A (EU numbers) omitted]
- Experiment on activity in PVRIG reporter cells EC50 [5]: 3.55 nM
